{"source": "PubChem BioAssay AID686978", "about": "(National Center for Advancing Translational Sciences (NCATS), 2013)", "note": "The campaign covered roughly 420,000 compounds. About 64,000 (15%) were called active. Inconclusive results, whose numbers are uncertain, are shown with a selection of clear calls. Calls come from the whole dose curve; as a rule, active = well fitted inhibition curve with a large enough effect; inconclusive = small, poorly fitted or top-dose-only effect; inactive = flat fitted curve, though single readings scatter. Potencies of inconclusive entries are left out as doubtful fits. Potency is the fitted concentration of half-maximal effect; tags give direction and shape of the fitted curve."}
{"test": "qHTS for Inhibitors of human tyrosyl-DNA phosphodiesterase 1 (TDP1): qHTS in cells in absence of CPT; note: nearly all actives have a fitted effect of over 55% in size", "conditions": "DT40 Tdp1-/- hTDP1 cells, no CPT, ATP luminescence, 48 h; series mostly up to 46.2 µM", "how_it_was_run": "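Seeded 400 DT40-hTDP1 cells/well (vehicle DMSO, no 20 nM CPT); pinned compounds; ≥48 hr at 37 °C; CellTiter-Glo luminescence as viability measure.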"}
{"smiles": "COc1ccc(-c2nc(CSCC(=O)NCCCN3CCCC3=O)c(C)o2)cc1OC", "Potency": "inactive"}
{"smiles": "COc1cccc(NC(=O)CSc2cc(=O)n(C)c3ccc(Cl)cc23)c1", "Potency": "inconclusive [inhibitor, single point]"}
{"smiles": "Cc1ccc(OCC(=O)Nc2ccc(C)c(S(=O)(=O)N3CCCCCC3)c2)c([N+](=O)[O-])n1", "Potency": "inconclusive [inhibitor, single point]"}
{"smiles": "CCOC(=O)N1CCc2c(sc(NCc3sccc3C)c2C(=O)Nc2cc(OC)ccc2OC)C1", "Potency": "inactive"}
{"smiles": "CCCN(CCC)CCCNC(=S)Nc1ccc2nc(N3CCN(CC)CC3)cc(C)c2c1", "Potency": "inconclusive [inhibitor, partial curve]"}
{"smiles": "CCCNC(=O)c1cc(C2CCCCN2C(=O)c2cc(OC)c(C)c(OC)c2)on1", "note": "(stereo not drawn)", "Potency": "inconclusive [inhibitor, single point]"}
{"smiles": "CCOc1ncccc1C(=O)OCc1ccccc1", "Potency": "inconclusive [inhibitor, single point]"}
{"smiles": "CS(=O)(=O)Nc1cccc(-c2cncnc2Nc2ccc(F)cc2)c1", "Potency": "inactive"}
{"smiles": "Brc1ccc2c(c1)CNc1c(ncnc1N1CCOCC1)O2", "Potency": "inconclusive [inhibitor, single point]"}
{"smiles": "Cc1nc(NCc2ccccc2)[nH]c(=O)c1CCC(C)C", "Potency": "inconclusive [inhibitor, single point]"}
{"smiles": "Cc1ccc(CN2C(=O)C(Cc3ccccc3)Nc3ncnc(N4CCN(c5ccccc5)CC4)c32)cc1", "note": "(stereo not drawn)", "Potency": "inconclusive [inhibitor, single point]"}
{"smiles": "C=CCNC(=O)c1oc2ccc(S(=O)(=O)N3CCCCC3)cc2c1C", "Potency": "inactive"}
{"smiles": "COc1ccc(N2CC(C(=O)N[C@@H](CC(C)C)C(=O)NC3CCCC3)CC2=O)cc1", "note": "(stereo partly drawn)", "Potency": "inactive"}
{"smiles": "Cc1cccc(OC(C)C(=O)Nc2cc(Cl)ccc2-n2cncn2)c1", "note": "(stereo not drawn)", "Potency": "inconclusive [inhibitor, single point]"}
{"smiles": "Cc1nc(SCC(=O)c2ccc(Cl)cc2)c([N+](=O)[O-])[nH]1", "Potency": "inactive"}
{"smiles": "CC12CN(S(=O)(=O)c3ccccc3)CC(C)(CN(S(=O)(=O)c3ccccc3)C1)C2", "Potency": "inconclusive [inhibitor, full curve, poor fit]"}
{"smiles": "CCOC(=O)c1c(NC(=O)COC(=O)CCNS(=O)(=O)c2ccccc2)sc(C(=O)N(C)C)c1C", "Potency": "inconclusive [inhibitor, single point]"}
{"smiles": "CC(=O)c1sc2nc(-c3ccco3)ccc2c1N", "Potency": "inconclusive [inhibitor, partial curve, poor fit]"}
{"smiles": "Clc1ccc(-c2ccc(CNCc3ccccn3)o2)cc1", "Potency": "inconclusive [inhibitor, single point]"}
{"smiles": "COc1ccc(OC)c(/C=C/C(=O)c2ccc(Cl)cc2)c1", "Potency": "inconclusive [inhibitor, single point]"}
{"smiles": "COc1cc(C(C)=O)ccc1OCC(=O)N1CCC(Cc2ccccc2)CC1", "Potency": "inconclusive [inhibitor, single point]"}
{"smiles": "Cc1ccc(S(=O)(=O)N2CCN(CC(=O)N/N=C/C=C/c3ccccc3)CC2)cc1", "Potency": "inconclusive [inhibitor, single point]"}
{"smiles": "CN(Cc1ccccc1)C(=O)c1ccc2c(c1)NC(=O)C(N1CCOCC1)S2", "note": "(stereo not drawn)", "Potency": "inconclusive [inhibitor, partial curve, poor fit]"}
{"smiles": "CCOc1ccccc1NC(=O)Cc1coc2c(C)c(C)ccc12", "Potency": "inconclusive [inhibitor, single point]"}
{"smiles": "CC1CN2C(c3ccc(Cl)cc3)=CSC2=N1", "note": "(stereo not drawn)", "Potency": "inactive"}
{"smiles": "COc1ccc(NC(=O)c2c(C(=O)Nc3ccccc3)sc3nc(C)cc(=O)n23)cc1", "Potency": "inactive"}
{"smiles": "CCOc1ccccc1NC(=O)CN1C(=O)COc2ccc(S(=O)(=O)N3CCCCCC3)cc21", "Potency": "active: 20.6 µM"}
{"smiles": "O=C(NCC(=O)N1CC=C(c2ccccc2)CC1)c1ccc(F)cc1", "Potency": "inconclusive [inhibitor, single point]"}
{"smiles": "CC(C)Nc1nc(N(c2ccccc2)c2ccccc2)nc(-n2ccnc2)n1", "Potency": "inactive"}
{"smiles": "CCOC(=O)C(C)Sc1nc(N2CCOCC2)c2c(c1C#N)CC(C)(C)OC2", "note": "(stereo not drawn)", "Potency": "inconclusive [inhibitor, single point]"}
{"smiles": "COc1ccccc1-c1nnc2sc(-c3cnccn3)nn12", "Potency": "inactive"}
{"smiles": "O=C(Oc1ccccc1C(=O)Nc1ccccc1)c1ccccc1Br", "Potency": "active: 20.6 µM"}
{"smiles": "Cc1sc(NC(=O)CN2CCCC2)nc1-c1ccc2c(c1)CCN2C(=O)c1cccc(F)c1", "Potency": "active: 16.4 µM"}
{"smiles": "COc1ccc(-c2cc(C(=O)N3CCN(c4ccccc4)CC3)no2)cc1OC", "Potency": "inconclusive [inhibitor, partial curve]"}
{"smiles": "CC1(C)Cc2c(C#N)c(NCCc3ccccc3)nc(-c3ccco3)c2CO1", "Potency": "inconclusive [inhibitor, single point]"}
{"smiles": "CN1CCN(C(=O)CCc2nc(-c3ccc(Cl)cc3)no2)CC1", "Potency": "inactive"}
{"smiles": "O=C(NCC(c1ccco1)N1CCCCC1)c1cccc(NS(=O)(=O)c2ccc(Br)cc2)c1", "note": "(stereo not drawn)", "Potency": "inactive"}
{"smiles": "Cc1ccc(OCC(=O)Nc2ccc(NC(=O)c3ccccc3)cc2)cc1C", "Potency": "inactive"}
{"smiles": "COc1ccccc1-c1sc2ccccc2c1-c1ccc2c(c1)OCO2", "Potency": "inconclusive [inhibitor, partial curve]"}
{"smiles": "CC1CC1c1ccc(/C=C(\\C#N)C(=O)Nc2cccc(Cl)c2Cl)o1", "note": "(stereo not drawn)", "Potency": "inconclusive [inhibitor, single point]"}
{"smiles": "CC(C)C(=O)NC(C)C(c1cccs1)N1CCN(c2ccccc2)CC1", "note": "(stereo not drawn)", "Potency": "active: 20.6 µM"}
{"smiles": "Cc1cccc(OCC(=O)Nc2nonc2-c2ccc(Br)cc2)c1C", "Potency": "inconclusive [inhibitor, single point]"}
{"smiles": "CCC(C)(C)NC(=O)C(c1ccc(OC)cc1)N(C(=O)CCC(=O)Nc1cc(C)on1)c1cccc(OC)c1", "note": "(stereo not drawn)", "Potency": "inconclusive [inhibitor, single point]"}
{"smiles": "O=C(CSc1nnnn1-c1ccccc1)Nc1ccccc1", "Potency": "inactive"}
{"smiles": "CCn1nnc(NC(=S)NC(=O)c2ccc(-c3cccc(Cl)c3)o2)n1", "Potency": "inactive"}
{"smiles": "CN(C)c1ccc(-c2ccc3c(=O)c4ccccc4n(C)c3c2)cn1", "Potency": "inconclusive [inhibitor, single point]"}
{"smiles": "CNc1nc(-c2ccccc2C(F)(F)F)nc2ccccc12", "Potency": "inactive"}
{"smiles": "O=C(NC(=S)Nc1cc(C(F)(F)F)ccc1N1CCOCC1)c1ccco1", "Potency": "inconclusive [inhibitor, single point]"}
{"smiles": "COc1cc(OC)c(OC)cc1/C=C/c1ccc2ccccc2n1", "Potency": "active: 14.1 µM"}
{"smiles": "O=C(Nc1ccccc1N1CCN(C(=O)c2ccccc2)CC1)c1ccc2c(c1)OCO2", "Potency": "inconclusive [inhibitor, single point]"}
{"smiles": "COc1ccc(OC)c(S(=O)(=O)Nc2ccc(-c3ccc4nnc(C)n4n3)cc2)c1", "Potency": "active: 8.2 µM"}
{"smiles": "Cc1ccc2c(C)nc(Nc3nc(CSc4nnc(C)s4)cc(=O)[nH]3)nc2c1", "Potency": "active: 20 µM"}
{"smiles": "COc1cc(Nc2nc3c(N)cc(C(F)(F)F)cc3nc2-c2ccccc2)cc(OC)c1OC", "Potency": "active: 13 µM"}
{"smiles": "COc1ccc(C(C[N+](=O)[O-])c2c(-c3ccccc3)cc3ccccn23)cc1OC", "note": "(stereo not drawn)", "Potency": "active: 14.6 µM"}
{"smiles": "CCCN1C(=O)C(O)(CC(=O)c2ccc(CC)cc2)c2cc(Br)ccc21", "note": "(stereo not drawn)", "Potency": "active: 6.51 µM"}
{"smiles": "CCN1CCN(C(=O)c2ccccc2N(Cc2ccccc2)S(=O)(=O)c2ccc(OC)cc2)CC1", "Potency": "inconclusive [inhibitor, single point]"}
{"smiles": "COC(=O)CCC(=O)NC1CC(C)(C)Cc2c1cnn2-c1ccccc1", "note": "(stereo not drawn)", "Potency": "inactive"}
{"smiles": "CCc1ccc(OCC(=O)N(Cc2ccc(C)cc2)Cc2ccco2)cc1", "Potency": "active: 20.6 µM"}
{"smiles": "Cc1cccc(CSC2=NCCN2C(=O)c2ccco2)c1", "Potency": "inactive"}
{"smiles": "Cc1nc(NC(=O)C2CC2)sc1C(=O)N1CCCCC1", "Potency": "inactive"}
{"smiles": "Cc1cccc(C)c1-n1ncc(C(=O)NCc2ccc3c(c2)OCO3)c1C1CCN(C(=O)OC(C)(C)C)CC1", "Potency": "active: 14.6 µM"}
{"smiles": "O=C(Nc1ccc([N+](=O)[O-])cc1)c1cc(Cl)sc1Cl", "Potency": "inconclusive [inhibitor, single point]"}
{"smiles": "OC1CN=C2Sc3ccccc3N2C1", "note": "(stereo not drawn)", "Potency": "inactive"}
{"smiles": "Cc1c(-n2c(-c3ccccc3)nc3ccccc3c2=O)c(=O)n(-c2ccccc2)n1C", "Potency": "inconclusive [inhibitor, single point]"}
{"smiles": "Cc1oc(-c2ccccc2F)nc1CS(=O)(=O)CC(=O)N1CCOCC1", "Potency": "inactive"}
{"smiles": "O=C(COc1ccc(Cl)cc1)Nc1sc2c(c1C(=O)Nc1cccc(Cl)c1)CCCC2", "Potency": "active: 7.31 µM"}
{"smiles": "CCOc1ccc(CCNC(=O)COC(=O)c2ccc(OC(C)C)cc2)cc1OCC", "Potency": "inconclusive [inhibitor, single point]"}
{"smiles": "C[C@@H]1CC=C[C@H]2[C@H]1C(=O)N(Cc1ccccc1)[C@H]2c1ccc2ccccc2c1/C=C/c1ccccc1", "Potency": "inconclusive [inhibitor, single point]"}
{"smiles": "CSc1ncccc1C(=O)Nc1ccc(OC(F)(F)F)cc1", "Potency": "active: 14.6 µM"}
{"smiles": "CC(=O)N1c2ccc(S(=O)(=O)NCC3CCC(C(=O)N4CCCC(C)C4)CC3)cc2CC1C", "note": "(stereo not drawn)", "Potency": "inconclusive [inhibitor, single point]"}
{"smiles": "COc1ccc2[nH]c(=O)c(CN(CCO)C(=O)c3ccccc3F)cc2c1", "Potency": "inactive"}
{"smiles": "CC(C)(C)c1ccc(NC(=O)C(=O)C2C(=O)Nc3ccccc32)cc1", "note": "(stereo not drawn)", "Potency": "active: 13 µM"}
{"smiles": "COc1ccccc1NC(=O)CN1CCN(c2ccc(F)cc2)CC1", "Potency": "inconclusive [inhibitor, single point]"}
